# Measurements as given in the supplement of paper PMC11417369.
# The list shows a part of the results.
# Test system: PfAP2-HC AP2 domain (GST-tagged)
# Assay: gcPBM binding intensity (ln(normalized median fluorescence intensity)); higher = stronger DNA binding
# How it was run: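 An Agilent 4 × 180k array carrying primer-extended double-stranded 36-bp intergenic genomic probes and negative controls received GST-tagged P. falciparum DNA-binding domains expressed in E. coli, about 25 μg on average, for 1 h. The binding buffer contained 1× PBS, 1% milk, 0.2 mg/ml BSA, 0.5% salmon testes DNA and 0.03% Triton X-100. Binding intensity is the top Masliner-normalised natural-log median intensity across replicate spots of either probe orientation, read after Alexa488 anti-GST antibody staining and a 488 nm scan.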
row,Sequence,gcPBM binding intensity (ln)
1,GAAAAGCATAGATGCACACATATATATATATATATA [CACACA_site2169],9.85
2,GTGTTAATTTTAAATTGTACAAAATTTATATGATTT [XGTACX_site348],9.56
3,ATATACTTTTTTTTTTTTTTTTTAACGTTATTTATG [CACACA_negctrl_site1277],9.64
4,TTACACATATATATAAATATATATAAATATATATAT [CACACA_negctrl_site150],9.55
5,AAAATATATGAAAACAGTACATATAAAAATTAAAAA [XGTACX_site2594],9.73
6,ATTAATTTTGGTTCATGTACATAAGAAATAAACTCT [XGTACX_site4534],9.42
7,ATTTTTATACGTTTTTTTTTTTTTTTTTTTTATTTA [CACACA_negctrl_site1142],9.65
8,TATAACATAATATAGACACACACATGTACTTATGCC [CACACA_site8547],10.4
9,TTTATATTTCAATTTTGTGCTTCGCAAATTGAGAGG [TGCATGCA_negctrl_site327],9.39
10,CACTACATTATGTCATAAATGCATACATAAACATAT [GTGCAC_negctrl_site513],9.71
11,TAAAAATTATATATCACACATATATGTCAGTATACA [CACACA_site4624],9.74
12,ATTTATATGTGGAGCAGTACGCACTCTCACAATTAA [XGTACX_site7252],9.44
13,TAATATATGTATATATGTACATATAAATGTTATAGA [XGTACX_site2721],9.69
14,TTGGTATAAAATTATAGTACATAAGGTAAATATAAA [XGTACX_site4698],9.79
15,GATGTTCATCACTACACACACAAAGAAATATATATA [CACACA_site2684],10.2
16,AAAGAAAAAAAATATAAAAAATAAAAAATAAAACAA [CACACA_negctrl_site374],9.55
17,TTGTATTTCCTTAGGAGTACACATAAATAAGTAAAT [XGTACX_site6677],9.54
18,GTAAAATATATAAAATGTACATATATTATATATATA [XGTACX_site489],9.64
19,CATTTAAAAGATAAAACACACATACTAATAAAAAAC [CACACA_site5417],9.93
20,TTTCTTTATTAAAATATTTTACATATATAATATACG [TGCATGCA_negctrl_site564],9.63
21,CTTCTCTTTTTTATCATGCACTTTTTGTATAATAAT [GTGCAC_site9834],9.83
22,ACATATATTATTATATGTACATATATTAATTATATA [XGTACX_site3400],9.55
23,ATCATTTTTAAAGGAACACACAAAAAAAATTAAAAT [CACACA_site4878],9.74

row,Sequence,gcPBM binding intensity (ln)
1,ACTCTCTTATATTAAACACACATATATATCTGTATA [CACACA_site5489],9.99
2,AATTTAATATAATGCACACATAAAACAAAAACAAAA [CACACA_site529],10.1
3,TACGTAAATGTGTGTGTGCACGTTATATATTAATAT [GTGCAC_site9976],10.2
4,TATTATCGTTCTCATACACACAAAATATACATACAC [CACACA_site2643],10.2
5,CATTTTTTATTTCCTTGTACGAATAAAATATATTTA [XGTACX_site6844],9.38
6,ATAAACATATAAAAAGTGCATATTCATATATCTACT,9.73
7,ATGGCCTCATTTGGGACACACAACATAAAATATATA [CACACA_site753],9.8
8,AATACACTAAACAAAAGTACAAAAATATTCTACAAA [XGTACX_site5162],9.73
9,AAATATATTTTATGTACACACAAAATTAAGGGATAT [CACACA_site4881],10.2
10,TGTTAATTATAAATTTGTACTTATTTTTACAAAATA [XGTACX_site6598],9.48
11,TTATAATAATATAATACATGCATATATATTTAAATA [TGCATGCA_site903],9.6
12,TCACTATAATAATTTACACACATTTTAAGAAAATGT [CACACA_site3530],9.92
13,AAAATGAATAAAAATACACACATATCTGTTATTCTC [CACACA_site5474],9.84
14,GAATATTAATTCATACGTACTTATATATAAGTATAT [XGTACX_site3707],9.71
15,TATAAAAATGGGCACACACACACATATATATATTTA [CACACA_site1527],10.6
16,ATATATATATATATAACACACGCAAAAAAATTAAAT [CACACA_site8395],10.1
17,AAAAAAAAAAAAATCACACATAATATAGAATATGTA [CACACA_site4993],9.51
18,AACTTAAAAAATAAATGTACATAAATATAAACATAT [XGTACX_site2987],9.73
19,TATTTAAATTTTAAGTGTACATATTTATTTATATCT [XGTACX_site6545],9.59
20,AAAAAAAAAAAAAACATACACACAATAAAATAGGGG [CACACA_site2398],10
21,ATTTTTTTTTTTTTTTTTTTTTTATTCTTGTAATCT [CACACA_negctrl_site1039],9.41
22,CCTTTTTATCTTTTTGTGCACAGACCTTTTTTAAAT,9.87
23,ATGTAAGTTGTGCATTCACACACATATATATATATA [CACACA_site9086],9.99

row,Sequence,gcPBM binding intensity (ln)
1,ATATAATAATAAAGACGTACAAATGTATATATATAC [XGTACX_site3123],9.9
2,ATTTTTTTTTTTTATAGTGGATCCACATTTGCCATT [CACACA_negctrl_site1284],9.62
3,ATATATTTTAATTGTTGTACATATTAAATAAATAGG [XGTACX_site2311],9.49
4,TATATTTTATATATGGTGCAACTTTTATTTAAATAA,9.33
5,CATATATAAAAAAACACACACATATATATATATATA [CACACA_site1195],10.2
6,ACATAAATATAAACGTGTACATATATAAATATATAT [XGTACX_site7293],9.92
7,AAAATTAAACTCACACCACACACAAAAAAAAAAAAA [CACACA_site8131],10.6
8,AAGAAAGACATTACGTGTACCAAACAACCTACCAAC [XGTACX_site4219],9.94
9,ATGTATATGTCTATATGTACTTATATTTTATTTTTT [XGTACX_site5902],9.83
10,TGTTTTATCTTATATGCACACGATAAAAAAAAAAAA [CACACA_site2674],9.49
11,TTACAAGTAAAAGGTACACACATTATAAATACAAAT [CACACA_site4752],9.98
12,CATTATTCATTTTGGATGCACTGACAGAAAAATGGT,9.5
13,ATGCTCAGGAAAACATGTACAAAATTATTTGTTATA [XGTACX_site4306],9.56
14,TGAGTACACAATAATACATGCAATTCCTATGAATAT [TGCATGCA_site851],9.62
15,ATATGACATAAAACATGTACATGTTCATAAATATAT [XGTACX_site1923],9.85
16,ATTTACATAATAAAATGTACATTTATAAATATTATA [XGTACX_site1901],9.64
17,TACACTTTTTATGAAGTGCATGTATAGCTCTTAAAA [GTGCAC_site9595],9.34
18,TTTTGTGCTTAAAAAAGTACAAAATATAAAAAAAAT [XGTACX_site7876],9.41
19,TGCAGTCTGGAGAAACGTACACAGTATCTGGTAACC [XGTACX_site2543],9.58
20,CCCACAGACGGACACACACACACACCGACACATATA [CACACA_site4356],11
21,AAAATTGAACCTGACAAGGTATTTTATTATTTATTA [TGCATGCA_negctrl_site181],9.44
22,TTCTATTTTAATATCTGTACATAATAAAGATCCATT [XGTACX_site1142],9.47
23,AGTTTTTATAAAAATAGTACATATTTATTAATCTGT [XGTACX_site5881],9.59

row,Sequence,gcPBM binding intensity (ln)
1,CTTTTTCTTTTCCGGCGTACAGACTTAGTAGTAGAT [XGTACX_site2268],9.48
2,TACATGCAAAAAATTCCACACACACCCCCACATATA [CACACA_site8329],10.3
3,TAAAATATAGGAAATACATGCATATTAAATATTCCT [TGCATGCA_site1057],9.6
4,TACTTCATTCATTTTACACACATATAAACCCTTTTA [CACACA_site3229],10
5,AATATTCAATATAAAGTGCATTATTGTGGACCTAAT,9.79
6,ACTAATACATAAAAAAGTACAAATATGAGTATTAAC [XGTACX_site7281],9.93
7,TATATAGCTAAAAACACACAAATATGTACACATAAA [CACACA_site7665],9.88
8,AAATATACATACATATGTACATATATATATATATAT [XGTACX_site8202],9.86
9,ATAGTTAAAAAAAAAAAAAAAAAAAAAAGAGAGAGA [CACACA_negctrl_site1307],9.44
10,ACAATAAAGAACAGTATGCACTTTTATGCATGCGTA,9.68
11,AAATTATTAAAAAAGTGTACATATTTTTATAATACC [XGTACX_site5610],9.58
12,ATAAGCATACATATTACACACATATAACATCTATAT [CACACA_site7219],9.99
13,GGGTATACCAATATAACACACATATATATATAATAT [CACACA_site450],9.86
14,TTAATCAAATTACTATGTACATAAAACATATAAGAA [XGTACX_site381],9.63
15,TATTTTTTTTCAAAAAAGTTTATTTAGAACTAAATA [XGTACX_negctrl_site487],9.17
16,AAAAAAAAAAAAAGTACACACATACAGATAAATATA [CACACA_site5067],9.98
17,ATAAATTGATTCAACACACACATATGTAGGAAGTTA [CACACA_site3253],9.97
18,TTTTTTAAATTGGTAGTGCAATATGATTGAACAAAA [GTGCAC_site9715],9.36
19,AATACAATAAAAAAAAGTACACATGTATAAAAAATT [XGTACX_site8270],10.4
20,TGTTATCAGAAAGCACGTACATATAATTATATATTC [XGTACX_site4188],9.57
